Test results reported in the supplement of paper PMC9433436.
± gives the standard deviation of the averaged measurements. Over roughly 4,100 sequences, “relative kcat/Km (krel) vs genomic leader AAAGAU” has its median near 1.7; the highest 2% begin near 6.5. The entries are a selection whose mix differs from that of the whole data set.

Molecular target: T1, E. coli RNase P holoenzyme (M1 P RNA + rnpA protein) (UniProt P0A7Y8)
T1 sequence: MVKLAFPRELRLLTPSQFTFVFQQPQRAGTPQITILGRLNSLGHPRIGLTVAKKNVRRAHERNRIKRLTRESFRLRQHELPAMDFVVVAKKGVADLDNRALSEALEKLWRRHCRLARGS
Experiment: relative kcat/Km (krel) vs genomic leader AAAGAU (relative (reference leader = 1)); higher = faster RNase P cleavage
Procedure: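 HTS-Kin: a pool of ptRNA-Met (21C construct) with all 4096 combinations of 5' leader nucleotides N(-6) to N(-1) was processed in vitro by E. coli RNase P (P RNA + rnpA/C5 protein) under multiple-turnover conditions at 37 C, pH 8, 17.5 mM MgCl2. Residual substrate was Illumina-sequenced at several fractions reacted, and relative kcat/Km (krel) was computed by internal competition kinetics, calibrated to the genomic leader (AAAGAU = 1). The listed hexamer is the varied N(-6)..N(-1) leader (DNA letters), and it sits between a fixed 5' stem-loop flank (GCAUGCACGAAAGUGCGUGCUAUGAA) and the mature tRNA-Met starting GGCUACGUAGCUCAGUUGG. Two technical replicates are averaged.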

[1] = fraction of substrate reacted: ~26-29% (28.66% repeat 1, 26.4% repeat 2)
[2] = fraction of substrate reacted: ~9-10% (9.79% repeat 1, 9.1% repeat 2)
[3] = fraction of substrate reacted: ~13-16% (15.68% repeat 1, 13.17% repeat 2)

| Sequence | relative kcat/Km [1] | relative kcat/Km [2] | relative kcat/Km [3] |
| --- | --- | --- | --- |
| AATGCG | 0.487 ± 0.2 |  |  |
| TGAGAG | 1.32 ± 0.24 | 0.464 ± 0.056 | 0.726 ± 0.6 |
| TTTAGT | 2.46 ± 2.2 |  |  |
| ACCCAG | 2.64 ± 0.17 |  | 1.4 ± 0.71 |
| TGTCGG | 1.14 ± 0.26 | 0.171 ± 0.1 | 0.567 ± 0.23 |
| AGAACG | 0.826 ± 0.79 |  | 0.074 ± 0.047 |
| CTCCGG | 1.27 ± 0.5 | 1.38 ± 0.85 | 0.916 ± 0.46 |
| TAGGCT | 1.67 ± 1.1 |  |  |
| CCTTCC | 2.47 ± 0.27 | 1.62 ± 0.022 | 1.51 ± 1.3 |
| ACCCCG | 2 ± 0.69 | 1.18 ± 0.35 |  |
| CGCGCA | 3.31 ± 0.91 | 1.86 ± 0.068 | 2.64 ± 0.045 |
| ATCATT | 6.49 ± 2.6 | 3.39 ± 1.4 | 4.551 ± 0.032 |
| ACTCGC | 3.61 ± 0.64 | 3.16 ± 0.92 | 3.16 ± 0.18 |
| TGTGCA | 1.71 ± 0.67 |  | 0.836 ± 0.2 |
| ATATCA | 2.74 ± 1.5 | 1.94 ± 0.96 | 2.19 ± 0.46 |
| CTTAGG | 0.758 ± 0.54 |  |  |
| GGGCAC | 1.72 ± 0.64 | 1.49 ± 0.77 | 0.688 ± 0.52 |
| TAGCCC | 2.1 ± 0.28 | 1.1 ± 0.067 | 1.11 ± 0.71 |
| TTAATG | 1.64 ± 0.45 |  |  |
| CAGGTC | 1.49 ± 1.1 |  |  |
| TCACAA | 3.27 ± 0.98 |  | 2.19 ± 0.42 |
| GAAGCC | 1.16 ± 0.23 | 1.03 ± 0.013 | 0.755 ± 0.27 |
| CTTCGG | 0.551 ± 0.24 |  |  |

| Sequence | relative kcat/Km [1] | relative kcat/Km [2] | relative kcat/Km [3] |
| --- | --- | --- | --- |
| TGCAGG | 0.513 ± 0.1 |  |  |
| AGGCGG | 0.331 ± 0.095 |  |  |
| CACCAC | 5.55 ± 2.2 | 3.5 ± 0.91 | 3.81 ± 1.5 |
| GGAATG | 1.94 ± 0.37 |  | 0.662 ± 0.44 |
| ATGTTC | 2.71 ± 0.94 | 1.44 ± 0.31 | 1.79 ± 0.7 |
| TAGATC | 3.07 ± 1.1 | 2.02 ± 0.84 | 2.35 ± 0.3 |
| CCTCCG | 0.934 ± 0.35 |  |  |
| GTGTGA | 1.79 ± 0.78 |  | 1.68 ± 0.93 |
| GAAGTT | 1.22 ± 0.6 | 1.12 ± 0.12 | 1.37 ± 0.051 |
| CGGCCA | 0.432 ± 0.16 | 0.559 ± 0.041 |  |
| TAACAT | 5.06 ± 2.1 | 2.61 ± 0.92 | 3.65 ± 0.29 |
| GGGATG | 0.779 ± 0.15 | 0.585 ± 0.41 |  |
| TAATGG |  | 0.461 ± 0.18 |  |
| TACAGA | 8.3 ± 3 | 4.52 ± 2 | 5.66 ± 0.35 |
| AGGCGC | 1.44 ± 0.24 |  | 1.07 ± 0.53 |
| AGCCCT | 2.28 ± 0.39 | 2.02 ± 0.54 | 1.22 ± 0.1 |
| TTAATA | 2.85 ± 1 | 1.94 ± 0.59 | 2.09 ± 0.08 |
| AAATCT | 2.8 ± 0.68 | 1.86 ± 0.61 | 2.09 ± 0.095 |
| TGAAAA | 4.23 ± 1.5 | 2.47 ± 0.28 | 2.65 ± 0.25 |
| TCAGTT | 1.6 ± 0.62 | 1.27 ± 0.83 | 1.27 ± 0.28 |
| ATAGCG | 1.1 ± 0.027 |  |  |
| CGAGCA | 1.44 ± 0.42 | 1.21 ± 0.12 | 0.823 ± 0.73 |
| CTCTAC |  | 4.76 ± 1.6 |  |

| Sequence | relative kcat/Km [1] | relative kcat/Km [2] | relative kcat/Km [3] |
| --- | --- | --- | --- |
| TCAGTC | 2.62 ± 1.1 | 1.48 ± 0.59 | 1.89 ± 0.021 |
| TGATGT | 1.37 ± 0.91 |  | 1.13 ± 1.1 |
| TGGGAC |  |  | 0.674 ± 0.39 |
| AATCGA | 4.14 ± 1.9 | 2.6 ± 0.85 | 2.463 ± 0.015 |
| ACGGCT | 0.359 ± 0.16 |  |  |
| GCCTTT | 5.06 ± 1.7 | 3.36 ± 1.7 | 3.71 ± 0.066 |
| ACGATA | 1.27 ± 0.066 | 2.03 ± 1.6 | 1.57 ± 0.086 |
| CCGTGA | 3 ± 0.73 | 2.27 ± 0.11 | 2.27 ± 0.85 |
| CCATAT | 5.88 ± 2 | 3.72 ± 1 | 4.23 ± 1.3 |
| AGACCT | 2.41 ± 0.89 | 1.34 ± 0.098 | 1.72 ± 0.086 |
| CGTCCC | 2.43 ± 0.33 | 1.61 ± 0.99 | 2.29 ± 0.97 |
| TGTTTG | 1.85 ± 0.1 |  | 0.726 ± 0.29 |
| TTCTCA |  | 4.88 ± 2.1 | 5.74 ± 0.87 |
| CCGGAT | 1.21 ± 0.76 | 1.2 ± 0.079 | 1.3 ± 0.8 |
| CAGCTG | 1.15 ± 0.088 |  |  |
| GGTGTT |  |  | 1.36 ± 0.86 |
| CGTTCA | 3.09 ± 1 | 1.32 ± 0.27 | 1.73 ± 0.49 |
| TTTATC | 3.47 ± 1.3 | 2.68 ± 1.5 | 2.72 ± 0.24 |
| GGGAGT | 1.29 ± 0.75 | 0.595 ± 0.46 |  |
| TCTTGC | 5.64 ± 1.7 | 2.52 ± 0.3 | 4.14 ± 0.4 |
| ATACGC | 3.63 ± 1.5 | 2.11 ± 0.55 | 2.7 ± 0.22 |
| TTGTCT | 3.01 ± 1.3 | 1.72 ± 0.062 | 1.78 ± 0.32 |
| AGCTAT | 5.23 ± 1.9 | 4.03 ± 1.8 | 3.39 ± 1.1 |

| Sequence | relative kcat/Km [1] | relative kcat/Km [2] | relative kcat/Km [3] |
| --- | --- | --- | --- |
| TTCTAC | 10.6 ± 4.4 | 5.32 ± 1.5 | 7.7 ± 1.3 |
| GAAGAA | 2.76 ± 0.48 | 2.23 ± 0.43 | 2.71 ± 0.3 |
| AGCATA | 3.11 ± 1.2 | 1.6 ± 0.75 | 1.84 ± 0.39 |
| TGGTTC | 1.36 ± 0.94 |  |  |
| TCAATC | 3.06 ± 1.1 | 1.69 ± 0.066 | 2.26 ± 0.77 |
| CGGACA | 0.747 ± 0.23 | 0.696 ± 0.1 | 0.739 ± 0.49 |
| CCACAG | 1.21 ± 0.98 |  |  |
| GCTTCG | 1.29 ± 0.4 |  |  |
| ACCCGC | 4.87 ± 1.5 | 3.03 ± 1.8 | 3.51 ± 0.3 |
| TCCCGC | 7.32 ± 3.2 | 4.31 ± 2.6 | 5.2 ± 0.32 |
| TGAGCC | 1.26 ± 0.39 |  | 1.41 ± 0.22 |
| CCGTAG | 2.6 ± 0.2 |  | 0.954 ± 0.089 |
| AGCAAC | 3.71 ± 1 | 2.29 ± 0.43 | 2.39 ± 0.28 |
| ATACAT | 4.87 ± 2.1 | 2.77 ± 0.72 | 3.38 ± 0.47 |
| GTTGAG | 1.15 ± 0.24 |  |  |
| TAGGCC | 1.35 ± 0.44 | 1.33 ± 1.1 | 1.36 ± 0.31 |
| ATTAAC | 4.3 ± 1.9 | 2.63 ± 0.68 | 3.17 ± 0.4 |
| TTTCGG | 0.932 ± 0.27 |  |  |
| AGATCG | 1.82 ± 0.53 |  | 0.602 ± 0.19 |
| TATAGC | 4.77 ± 2.5 | 2.28 ± 0.44 | 3.41 ± 1.1 |
| ATTAAG | 2.73 ± 0.5 |  | 1.45 ± 0.17 |
| GGGTAC | 1.22 ± 0.74 | 0.384 ± 0.092 | 0.982 ± 0.8 |
| ACGAGG | 0.796 ± 0.2 | 0.906 ± 0.9 |  |

| Sequence | relative kcat/Km [1] | relative kcat/Km [2] | relative kcat/Km [3] |
| --- | --- | --- | --- |
| CGCGAG | 2.26 ± 0.36 |  |  |
| TAATCT | 4.22 ± 1.6 | 1.87 ± 1.1 | 3.08 ± 0.23 |
| CCTTGG | 0.75 ± 0.38 | 1.01 ± 0.43 |  |
| AACAGA | 5.65 ± 2.1 | 3.71 ± 2.3 | 4.083 ± 0.036 |
| CCCGTA | 4.23 ± 1.7 | 3 ± 0.3 | 3.06 ± 1.1 |
| GAGGGT | 1.44 ± 0.023 |  |  |
| CTACGA | 3.49 ± 1.2 | 1.44 ± 0.19 | 2.46 ± 0.98 |
| AACAAA | 5.24 ± 1.1 | 3.32 ± 2.3 | 3.9 ± 0.11 |
| CCCACT | 2.79 ± 0.067 | 1.87 ± 1.1 | 1.27 ± 0.14 |
| TTAGAG | 2.33 ± 0.41 |  | 1 ± 0.043 |
| CGCCTT | 4.4 ± 2.4 | 2.2 ± 0.21 | 2.27 ± 0.5 |
| CGATCA | 1.93 ± 0.13 | 0.578 ± 0.073 | 1.46 ± 0.7 |
| TCCACA | 5.84 ± 2.4 | 3.82 ± 1.2 | 4.26 ± 0.19 |
| TCCTCC | 6.57 ± 2.7 | 3.65 ± 1.8 | 4.58 ± 1.2 |
| TGACTA | 2.45 ± 1.1 | 1.37 ± 0.11 | 1.68 ± 0.13 |
| TGTTGA | 5.59 ± 2.1 | 2.15 ± 0.44 | 3.32 ± 1.3 |
| TTCGCC | 9.48 ± 3.8 | 4.66 ± 1.2 | 6.09 ± 1.6 |
| TGATAA | 5.68 ± 2.5 | 3.27 ± 0.52 | 4.18 ± 0.85 |
| GAAGAG | 1.68 ± 0.19 | 1.6 ± 0.85 |  |
